In PubChem BioAssay AID686978 (National Center for Advancing Translational Sciences (NCATS), 2013):
Where “and” joins values, the source holds several entries; their conditions need not be identical. Equal entries are not always repeated. About 64,000 (15%) of roughly 420,000 compounds were called active. This list was built around the results that the source calls inconclusive (neither active nor inactive); the mix of calls is not that of the screen. Calls follow the shape of the dose curve; as a rule, active = well fitted inhibition curve with a large enough effect; inconclusive = small, poorly fitted or top-dose-only effect; inactive = flat fitted curve, though single readings scatter. Potencies of inconclusive entries are doubtful fits and often do not repeat.

experiment: qHTS for Inhibitors of human tyrosyl-DNA phosphodiesterase 1 (TDP1): qHTS in cells in absence of CPT; details: DT40 Tdp1-/- hTDP1 cells, no CPT, ATP luminescence, 48 h; activity change, negative = growth inhibition: at 46.2 µM (top of the series) unless noted; also: nearly all actives have a fitted effect of over 55% in size
How it was run: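 Seeded 400 DT40-hTDP1 cells/well (vehicle DMSO, no 20 nM CPT); pinned compounds; ≥48 hr at 37 °C; CellTiter-Glo luminescence as viability measure.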
% is scaled to controls: 0 for no effect and ±100 for the full control effect; potency is read from the fitted curve at half-maximal effect; tags tell the direction and shape of the fitted curve.

Structure (SMILES)	Potency	activity change, negative = growth inhibition
Cc1cccc(OCCCCc2c(C)n[nH]c2C)c1C	inconclusive: 16.4 µM [inhibitor, single point]	
CC(CN1CCCCC1)OC(=O)COc1ccc(Br)cc1 (stereo unspecified)		inactive: 22.9%
COc1ccc(C2(C(=O)Nc3cc(C)on3)CCOCC2)cc1		inactive: -25.4%
COc1ccc(N2c3ccccc3CN(Cc3ccccc3)[C@@H](C)[C@H]2Cc2ccc(-c3ccccc3)cc2)cc1	inconclusive: 20.6 µM [inhibitor, single point]	
N#Cc1cccc(C=C(C(=O)c2ccccc2)c2ccccc2)c1	active: 18.7 µM	
N#Cc1nc(-c2ccc(OCc3ccc(Cl)cc3)cc2)oc1N1CCCCCC1	inconclusive: 12.6 µM [inhibitor, partial curve]	
O=c1[nH]c2ccc(Cl)cc2c(-c2ccccc2)c1N1CCN(c2ccccn2)CC1	inconclusive: 29.1 µM [inhibitor, single point]	
CCOc1cc(N2CCOCC2)c(OCC)cc1NC(=O)c1ccccc1C		inconclusive: -30.3% [inhibitor]
Cc1cc(N2CCN(C)CC2)nc2ccc(NC(=O)c3ccccc3F)cc12	inactive and inconclusive: 29.1 µM [inhibitor, single point]	
CCCNC(=O)C1(O)c2cc(Br)ccc2NC(=O)N1c1ccc(Cl)cc1 (stereo unspecified)		inactive: 11.6%
N=C1SCC(=O)N1/N=C/c1ccccc1		inactive: -10.9%
Cn1c(SCC(=O)c2ccccc2)nnc1-c1cccs1	inconclusive: 29.1 µM [inhibitor, single point]	
O=S(=O)(c1ccc(F)c(F)c1)N1CCN(CCc2ccccc2)CC1		inactive: -6.8%
O=[N+]([O-])c1ccccc1OCCNCc1ccccc1	inconclusive: 29.1 µM [inhibitor, single point]	
O=C(NCCCc1nc2ccccc2n1CCCOc1ccccc1)C1CCCCC1	active: 10 µM	
CCc1nc2c(OCc3ccccc3)cccn2c1N(C)C(=O)c1ccco1	inconclusive: 25.9 µM [inhibitor, single point]	
O=c1cc(-c2ccc(O)cc2)oc2ccc3ccccc3c12	active: 16.4 µM	
Cn1c2ccccc2c(=O)c2cc(C#Cc3ccc(N)cc3)ccc21	inconclusive: 23.1 µM [inhibitor, single point]	
Cc1cc(C(=O)CCl)c(C)n1-c1cccc([N+](=O)[O-])c1	active: 2.31 µM	
COc1ccc([C@@H]2[C@@H]3C(=O)N(C(C)(C)C)C(=O)[C@@H]3[C@]3(Cc4ccccc4)C(=O)N(c4cccc(Cl)c4)C(=O)N23)cc1	inconclusive: 20.6 µM [inhibitor, partial curve]	
CC(C)(C)c1ccc(CC(=O)N2CCC2(C)C(=O)NCc2ccc(Cl)cc2)cc1 (stereo unspecified)	active: 20.6 µM	
CC(=O)Nc1ccc(NC(=O)CC2CCCC2)cc1		inactive: -6.51%
O=C(CC1SC(N2CCCCC2)=NC1=O)Nc1ccc(C(=O)NCCc2ccc(F)cc2)cc1 (stereo unspecified)	inconclusive: 29.1 µM [inhibitor, single point]	
CCC(=O)NCc1nc(-c2cccc(NC(=O)c3ccc(C)s3)c2)oc1C	inconclusive: 23.1 µM [inhibitor, single point]	

Structure (SMILES)	Potency	activity change, negative = growth inhibition
Cc1c(C)c2ccc(OC(C)C(=O)N3CC[C@@]4(O)CCCC[C@H]4C3)c(C)c2oc1=O (stereo partly specified)	inconclusive: 16.4 µM [inhibitor, single point]	
COc1ccccc1OCCOCCOc1ccc(C)cc1Br	inconclusive: 16.4 µM [inhibitor, partial curve]	
COc1ccc(OC)c(CN2CCN(C(=O)c3cc4ccccc4cc3O)CC2)c1	inconclusive: 29.1 µM [inhibitor, single point]	
O=C(CSCc1ccc(Cl)cc1)NCc1ccccn1		inactive: -18.3%
Cc1cc(OCC(=O)Nc2ccc(C(=O)OC3CCCCC3)cc2)ccc1Cl	inconclusive: 16.4 µM [inhibitor, partial curve, poor fit]	
CCn1ccc(C(=O)Nc2c(C)nn(Cc3c(F)c(F)c(F)c(F)c3F)c2C)n1	active: 16.4 µM	
CC1CCN(C2=NC(=O)/C(=C/c3cn(-c4ccccc4)nc3-c3cccc(S(=O)(=O)N(C)C)c3)S2)CC1	active: 6.51 µM	
CC(C)c1ccc(C(=O)CC2(O)C(=O)N(CCc3ccccc3)c3ccc(Cl)cc32)cc1 (stereo unspecified)	inconclusive: 23.1 µM [inhibitor, single point]	
O/N=C/c1ccc2ccccc2n1		inactive: -20.8%
O=c1[nH]c(NCCO)c(N=Cc2ccccc2)c(=O)[nH]1	inconclusive: 29.1 µM [inhibitor, single point]	
COc1cccc(/C=N/NC(=O)CCCC(=O)Nc2ccc(Br)cc2)c1	active: 20.6 µM	
Cc1cc(Cl)c(S(=O)(=O)N2CCCCCC2)cc1OCC(N)=O		inactive: 0.105%
CC(=NC(C)C)C1=C(O)C(C)OC1=O (stereo unspecified)		inactive: 2.26%
C=CCn1c(SCC(=O)NCC2CCCO2)nnc1C1CCCCC1 (stereo unspecified)		inactive: -10.5%
O=C(/C=C/c1ccc(O)c(O)c1)OCCc1ccccc1	active: 3.26 µM and active: 2.82 µM and active: 1.03 µM	
CNC(=O)C1CCC(Cn2c(=O)c3sccc3n(CC(=O)Nc3cc(C)cc(C)c3)c2=O)CC1 (stereo unspecified)	active: 10.3 µM	
Cc1cc(C)c(C)c(S(=O)(=O)N2CCC(C(=O)NCc3ccco3)CC2)c1C		inactive: -10.8%
C[C@@H]1CN([C@@H](C)CO)C(=O)CCCn2nncc2CO[C@H]1CN(C)Cc1ccncc1		inactive: -9.96%
Oc1ccc(-c2nccc(-c3ccc(Cl)cc3)n2)cc1	inconclusive: 25.9 µM [inhibitor, single point]	
COc1ccc(C(=O)N/N=C(/C)c2ccc(N3CCCCC3)cc2)cc1	inconclusive: 20.6 µM [inhibitor, single point]	
CCOC(=O)C(C)n1cnc2c(nnn2-c2ccccc2)c1=O (stereo unspecified)		inactive: -14.3%
CCC(C)n1c(=N)c(C(=O)NCc2ccco2)cc2c(=O)n3cc(C)ccc3nc21 (stereo unspecified)	inconclusive: 20.6 µM [inhibitor, single point]	
Cc1cccn2c(=O)c3cc(C(=O)NCCN4CCOCC4)c(=N)n(CCCN4CCOCC4)c3nc12	inconclusive: 14.6 µM [inhibitor, partial curve]	
Cc1cc(C)cc(CC2CC(=O)N(c3ccc([N+](=O)[O-])cc3)C2=O)c1 (stereo unspecified)		inactive: -11.1%

Structure (SMILES)	Potency	activity change, negative = growth inhibition
COC(=O)[C@]1(Cc2ccccc2)N[C@H](c2ccc(-c3ccc(OC)cc3)cc2)[C@@H]2C(=O)N(C)C(=O)[C@@H]21		inactive: 1.3%
COc1ccc(OC)c(NC(=O)C2CCN(S(=O)(=O)c3c(C)noc3/C=C/c3ccc(C)cc3)CC2)c1	inconclusive: 0.461 µM [inhibitor, full curve, poor fit]	
O=C1CN(C(=O)COC(=O)CCS(=O)(=O)c2ccccc2Cl)c2ccccc2N1	inconclusive: 18.4 µM [inhibitor, single point]	
CCOc1ccc(C(=O)COC(=O)CNC(=O)C2CCCCC2)cc1	inactive	
COc1cc(CC(=O)OCC(=O)Nc2ccccc2C#N)cc(OC)c1OC		inactive: -20.6%
COc1ccc(Br)cc1S(=O)(=O)Nc1ccc(Cl)cn1		inactive: -5.97%
COC(=O)CCC(NS(=O)(=O)OCC(Cl)(Cl)Cl)c1ccccc1 (stereo unspecified)	inconclusive: 29.1 µM [inhibitor, single point]	
Cc1cccc([C@@H]2[C@@H]3C(=O)N(Cc4ccccc4)C(=O)[C@@H]3[C@]3(CC(C)C)C(=O)N(c4cccc(Cl)c4)C(=O)N23)c1	inconclusive: 16.4 µM [inhibitor, single point]	
O=C(CCc1ccc(Oc2cc([N+](=O)[O-])cc([N+](=O)[O-])c2)cc1)NC1CCCC1	inconclusive: 23.1 µM [inhibitor, single point]	
O=C(OCC(=O)N1CCOCC1)c1ccccc1Cc1ccccc1		inconclusive: -30.7% [inhibitor]
O=C1NC(=O)/C(=C/c2ccc(O)cc2)S1	inconclusive: 11.6 µM [inhibitor, partial curve, poor fit]	
CC(OC(=O)c1ccc(Cl)c(S(=O)(=O)N2CCOCC2)c1)C(=O)NC1CCCCC1C (stereo unspecified)	inconclusive: 25.9 µM [inhibitor, single point]	
CC(C)(C)/C(O)=C(/C#N)c1nc2ccccc2[nH]1	inconclusive: 25.9 µM [inhibitor, single point]	
CCCOc1cc(C)c(S(=O)(=O)NCCOC)cc1C	inconclusive: 20.6 µM [inhibitor, single point]	
CC(C)n1cc(C(=O)NC2CC(C)(C)Cc3c2cnn3-c2ccccc2)cn1 (stereo unspecified)		inactive: -20.5%
C[C@H]1CN([C@@H](C)CO)C(=O)CCCn2nncc2CO[C@@H]1CN(C)Cc1ccccc1C(F)(F)F		inactive: -21.2%
O=C(NCCN1CCC(n2c(=O)[nH]c3ccccc32)CC1)c1ccccc1Cl	inconclusive: 11.6 µM [inhibitor, partial curve, poor fit]	
Cc1cccc(Cn2c(CN3CCC(C(=O)NCc4ccccc4Cl)CC3)cc3ccccc32)c1	inconclusive: 20.6 µM [inhibitor, single point]	
Cc1ccc(N2CC(C(=O)Nc3ccc4c(c3)OCO4)CC2=O)cc1C (stereo unspecified)		inactive: -11.9%
COc1ccccc1OCC(=O)NC1CCCc2ccccc21 (stereo unspecified)	inconclusive: 6.51 µM [inhibitor, partial curve]	
CCCCOC(=O)c1cccnc1		inactive: -19.6%
COc1ccc2[nH]c3c(c2c1)CCN1C(=O)C(CC(=O)NCc2cccc(C(F)(F)F)c2)C[C@H](C(=O)N2CCOCC2)[C@@]31C (stereo partly specified)		inactive: -25.2%
O=C(/C=C/c1ccc(Cl)cc1Cl)n1cccn1	inconclusive: 25.9 µM [inhibitor, single point]	
